This passage reports binding results from PMC6172828.

Amino acid sequences for entries named in this document (tags omitted).
UniProt Q9Z148: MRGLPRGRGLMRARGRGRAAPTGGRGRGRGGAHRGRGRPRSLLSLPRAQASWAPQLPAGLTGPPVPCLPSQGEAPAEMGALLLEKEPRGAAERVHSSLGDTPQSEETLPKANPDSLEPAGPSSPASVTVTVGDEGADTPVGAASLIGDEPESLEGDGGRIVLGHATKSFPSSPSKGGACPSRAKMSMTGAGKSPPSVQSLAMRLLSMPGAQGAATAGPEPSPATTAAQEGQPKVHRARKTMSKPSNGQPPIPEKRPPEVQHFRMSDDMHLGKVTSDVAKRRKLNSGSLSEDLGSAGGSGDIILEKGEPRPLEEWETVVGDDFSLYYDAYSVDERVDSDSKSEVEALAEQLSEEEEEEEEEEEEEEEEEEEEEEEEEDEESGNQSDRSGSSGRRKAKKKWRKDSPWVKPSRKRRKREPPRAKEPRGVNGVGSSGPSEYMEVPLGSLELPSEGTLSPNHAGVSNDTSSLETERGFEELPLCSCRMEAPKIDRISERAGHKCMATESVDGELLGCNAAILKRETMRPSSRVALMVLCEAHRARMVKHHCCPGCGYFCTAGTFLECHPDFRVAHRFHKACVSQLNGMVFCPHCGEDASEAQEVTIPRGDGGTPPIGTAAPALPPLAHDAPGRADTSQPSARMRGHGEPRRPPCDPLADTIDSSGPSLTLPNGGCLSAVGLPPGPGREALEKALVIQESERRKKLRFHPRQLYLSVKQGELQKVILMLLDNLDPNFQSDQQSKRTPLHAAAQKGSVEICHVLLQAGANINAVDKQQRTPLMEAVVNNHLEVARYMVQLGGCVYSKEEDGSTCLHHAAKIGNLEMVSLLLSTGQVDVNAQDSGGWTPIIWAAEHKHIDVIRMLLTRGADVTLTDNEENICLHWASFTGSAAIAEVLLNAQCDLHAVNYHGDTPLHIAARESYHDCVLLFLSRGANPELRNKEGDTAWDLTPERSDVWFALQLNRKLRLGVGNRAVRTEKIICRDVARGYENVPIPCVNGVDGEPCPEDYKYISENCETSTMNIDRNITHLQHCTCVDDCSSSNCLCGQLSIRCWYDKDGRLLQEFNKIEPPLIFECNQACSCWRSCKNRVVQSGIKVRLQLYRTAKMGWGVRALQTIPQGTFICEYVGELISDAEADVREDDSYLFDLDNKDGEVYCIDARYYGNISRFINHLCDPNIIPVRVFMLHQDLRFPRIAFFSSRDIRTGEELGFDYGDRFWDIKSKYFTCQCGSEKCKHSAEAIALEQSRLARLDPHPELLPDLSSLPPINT

Experiment [1] has as its target T1, 3xFLAG-ATF7IP K16R mutant (stably expressed in Atf7ip KO mESCs) (mouse) (UniProt Q7TT18).
T1 sequence: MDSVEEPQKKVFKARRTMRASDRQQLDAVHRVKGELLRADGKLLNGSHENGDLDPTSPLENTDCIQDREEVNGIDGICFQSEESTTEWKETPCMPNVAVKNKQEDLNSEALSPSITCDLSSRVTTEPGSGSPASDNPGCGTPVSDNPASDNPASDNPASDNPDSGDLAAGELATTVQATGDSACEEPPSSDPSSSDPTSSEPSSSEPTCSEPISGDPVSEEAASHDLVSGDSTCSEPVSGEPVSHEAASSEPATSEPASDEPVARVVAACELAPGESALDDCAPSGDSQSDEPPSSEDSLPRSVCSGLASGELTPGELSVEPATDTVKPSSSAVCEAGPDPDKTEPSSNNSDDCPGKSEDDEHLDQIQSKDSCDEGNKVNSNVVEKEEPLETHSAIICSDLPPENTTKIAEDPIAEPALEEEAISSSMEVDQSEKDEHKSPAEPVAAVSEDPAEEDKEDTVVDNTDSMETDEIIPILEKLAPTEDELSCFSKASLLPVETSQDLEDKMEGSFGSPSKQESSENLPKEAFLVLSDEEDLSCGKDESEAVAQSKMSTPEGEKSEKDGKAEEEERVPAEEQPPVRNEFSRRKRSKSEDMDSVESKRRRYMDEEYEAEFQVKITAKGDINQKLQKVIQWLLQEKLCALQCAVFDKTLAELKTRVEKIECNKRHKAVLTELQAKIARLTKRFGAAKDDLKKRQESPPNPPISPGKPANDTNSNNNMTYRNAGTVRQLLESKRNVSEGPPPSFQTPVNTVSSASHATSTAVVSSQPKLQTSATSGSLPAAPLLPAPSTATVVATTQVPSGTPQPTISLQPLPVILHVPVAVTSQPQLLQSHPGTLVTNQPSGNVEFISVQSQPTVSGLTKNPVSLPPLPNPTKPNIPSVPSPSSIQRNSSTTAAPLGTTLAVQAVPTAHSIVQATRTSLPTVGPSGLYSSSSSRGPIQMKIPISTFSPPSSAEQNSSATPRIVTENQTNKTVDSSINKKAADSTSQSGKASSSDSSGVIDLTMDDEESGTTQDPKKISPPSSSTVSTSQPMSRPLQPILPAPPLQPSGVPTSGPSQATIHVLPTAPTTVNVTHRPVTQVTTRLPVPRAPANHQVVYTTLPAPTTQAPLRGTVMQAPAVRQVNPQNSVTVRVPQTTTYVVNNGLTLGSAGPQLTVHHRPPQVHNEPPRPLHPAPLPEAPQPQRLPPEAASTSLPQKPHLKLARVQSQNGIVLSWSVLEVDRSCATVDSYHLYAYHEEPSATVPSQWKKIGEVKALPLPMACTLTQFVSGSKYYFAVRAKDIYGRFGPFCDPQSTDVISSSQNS
Nature of the experiment: co-IP; Atf7ip KO mESCs rescued with 3xFLAG-ATF7IP WT, K16R or Δ(1–16); anti-FLAG M2 beads; endogenous partners detected by western blot.

Experiment [2] addresses T2, V5-MPP8 W80A mutant (expressed in mESCs) (mouse) (UniProt Q3TYA6).
T2 sequence: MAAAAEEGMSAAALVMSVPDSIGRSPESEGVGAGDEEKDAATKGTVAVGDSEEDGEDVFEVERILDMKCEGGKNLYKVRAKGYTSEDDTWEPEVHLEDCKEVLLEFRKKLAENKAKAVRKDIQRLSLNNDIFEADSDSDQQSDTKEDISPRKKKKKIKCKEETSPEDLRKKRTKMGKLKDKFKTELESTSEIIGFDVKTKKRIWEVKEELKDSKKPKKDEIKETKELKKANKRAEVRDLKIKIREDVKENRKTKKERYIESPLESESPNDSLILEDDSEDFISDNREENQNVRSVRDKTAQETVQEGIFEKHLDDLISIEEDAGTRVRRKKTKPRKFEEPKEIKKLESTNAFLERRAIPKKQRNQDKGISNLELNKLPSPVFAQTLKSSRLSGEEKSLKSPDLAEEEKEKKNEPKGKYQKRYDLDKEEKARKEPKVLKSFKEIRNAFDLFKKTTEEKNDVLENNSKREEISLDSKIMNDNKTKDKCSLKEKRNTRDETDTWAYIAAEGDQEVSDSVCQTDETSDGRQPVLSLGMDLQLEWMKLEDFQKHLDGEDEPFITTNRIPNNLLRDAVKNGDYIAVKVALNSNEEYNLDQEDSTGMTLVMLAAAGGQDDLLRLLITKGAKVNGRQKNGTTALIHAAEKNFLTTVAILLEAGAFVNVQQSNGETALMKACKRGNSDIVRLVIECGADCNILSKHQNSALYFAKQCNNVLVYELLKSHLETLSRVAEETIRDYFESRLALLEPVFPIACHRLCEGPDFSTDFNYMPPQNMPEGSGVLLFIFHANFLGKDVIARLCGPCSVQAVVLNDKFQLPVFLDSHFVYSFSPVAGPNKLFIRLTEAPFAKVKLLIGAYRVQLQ
Nature of the experiment: co-IP; WT mESCs expressing V5-MPP8 WT or W80A; anti-V5 antibody; endogenous ATF7IP detected by western blot. (In general: In western blotting, separated proteins are transferred to a membrane and probed.)

Experiment [3] concerns the target T3, V5-MPP8 WT (expressed in mESCs) (mouse) (UniProt Q3TYA6).
T3 sequence: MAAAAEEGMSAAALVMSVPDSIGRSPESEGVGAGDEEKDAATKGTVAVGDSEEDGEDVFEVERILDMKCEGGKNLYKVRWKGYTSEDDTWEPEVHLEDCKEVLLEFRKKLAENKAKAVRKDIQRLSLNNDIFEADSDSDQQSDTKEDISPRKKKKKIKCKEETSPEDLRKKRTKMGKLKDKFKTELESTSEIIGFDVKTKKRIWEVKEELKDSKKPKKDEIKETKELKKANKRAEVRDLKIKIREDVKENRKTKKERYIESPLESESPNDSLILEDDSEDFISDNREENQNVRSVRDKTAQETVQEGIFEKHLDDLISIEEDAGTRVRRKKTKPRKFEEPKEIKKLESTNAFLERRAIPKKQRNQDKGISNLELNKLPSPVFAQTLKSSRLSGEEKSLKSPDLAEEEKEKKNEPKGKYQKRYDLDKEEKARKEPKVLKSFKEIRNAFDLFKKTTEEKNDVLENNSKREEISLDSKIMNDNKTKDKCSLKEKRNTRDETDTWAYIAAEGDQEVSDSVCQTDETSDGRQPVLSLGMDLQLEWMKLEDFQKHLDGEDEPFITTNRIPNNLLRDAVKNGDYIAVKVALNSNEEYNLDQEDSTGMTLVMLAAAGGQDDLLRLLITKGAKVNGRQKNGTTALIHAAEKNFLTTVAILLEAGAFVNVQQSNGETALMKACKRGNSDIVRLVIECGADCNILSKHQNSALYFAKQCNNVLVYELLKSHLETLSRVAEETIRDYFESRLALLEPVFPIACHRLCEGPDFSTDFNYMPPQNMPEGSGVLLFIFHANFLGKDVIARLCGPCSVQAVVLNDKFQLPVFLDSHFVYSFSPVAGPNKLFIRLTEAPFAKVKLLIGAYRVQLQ
The experiment is described as above.

No constants are given. Whether binding was seen depends on the method and setting. In cells and extracts the contact can be indirect. Some results given as binding are weak or reduced against the parent protein; the word gives no strength. Tags and fused reporters may be left off the sequences shown.

As to “G9a (endogenous in mESCs) (from UniProt Q9Z148 1-1263) (enzyme)”, in experiment [1], the binding entry is given as “binds”.

B1: ATF7IP, endogenous in WT mESCs (protein, UniProt Q7TT18 1-1306)
chain: MDSVEEPQKKVFKARKTMRASDRQQLDAVHRVKGELLRADGKLLNGSHENGDLDPTSPLENTDCIQDREEVNGIDGICFQSEESTTEWKETPCMPNVAVKNKQEDLNSEALSPSITCDLSSRVTTEPGSGSPASDNPGCGTPVSDNPASDNPASDNPASDNPDSGDLAAGELATTVQATGDSACEEPPSSDPSSSDPTSSEPSSSEPTCSEPISGDPVSEEAASHDLVSGDSTCSEPVSGEPVSHEAASSEPATSEPASDEPVARVVAACELAPGESALDDCAPSGDSQSDEPPSSEDSLPRSVCSGLASGELTPGELSVEPATDTVKPSSSAVCEAGPDPDKTEPSSNNSDDCPGKSEDDEHLDQIQSKDSCDEGNKVNSNVVEKEEPLETHSAIICSDLPPENTTKIAEDPIAEPALEEEAISSSMEVDQSEKDEHKSPAEPVAAVSEDPAEEDKEDTVVDNTDSMETDEIIPILEKLAPTEDELSCFSKASLLPVETSQDLEDKMEGSFGSPSKQESSENLPKEAFLVLSDEEDLSCGKDESEAVAQSKMSTPEGEKSEKDGKAEEEERVPAEEQPPVRNEFSRRKRSKSEDMDSVESKRRRYMDEEYEAEFQVKITAKGDINQKLQKVIQWLLQEKLCALQCAVFDKTLAELKTRVEKIECNKRHKAVLTELQAKIARLTKRFGAAKDDLKKRQESPPNPPISPGKPANDTNSNNNMTYRNAGTVRQLLESKRNVSEGPPPSFQTPVNTVSSASHATSTAVVSSQPKLQTSATSGSLPAAPLLPAPSTATVVATTQVPSGTPQPTISLQPLPVILHVPVAVTSQPQLLQSHPGTLVTNQPSGNVEFISVQSQPTVSGLTKNPVSLPPLPNPTKPNIPSVPSPSSIQRNSSTTAAPLGTTLAVQAVPTAHSIVQATRTSLPTVGPSGLYSSSSSRGPIQMKIPISTFSPPSSAEQNSSATPRIVTENQTNKTVDSSINKKAADSTSQSGKASSSDSSGVIDLTMDDEESGTTQDPKKISPPSSSTVSTSQPMSRPLQPILPAPPLQPSGVPTSGPSQATIHVLPTAPTTVNVTHRPVTQVTTRLPVPRAPANHQVVYTTLPAPTTQAPLRGTVMQAPAVRQVNPQNSVTVRVPQTTTYVVNNGLTLGSAGPQLTVHHRPPQVHNEPPRPLHPAPLPEAPQPQRLPPEAASTSLPQKPHLKLARVQSQNGIVLSWSVLEVDRSCATVDSYHLYAYHEEPSATVPSQWKKIGEVKALPLPMACTLTQFVSGSKYYFAVRAKDIYGRFGPFCDPQSTDVISSSQNS
modifications: tri-methylated lysine at K16 (shown on 3xFLAG-ATF7IP in WT mESCs, ~ 92%)
For the molecule B1, the binding result is “no binding” in experiment [2] and “binds” in experiment [3].
